The subject of the test is V-C8 (BRCA2-deficient hamster cells). In words: normalised cell viability (fraction of plate median); higher = more viable cells (less toxic). Particulars: 5 µM. The procedure, abridged: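 Hamster V-C8 cells with and without restored BRCA2 were exposed in 96-well plates to library drugs at 5 μM for 3 days (screen 1) or 6 days (screen 2). Cell viability was scored by resazurin assay, then median-plate normalised, averaging triplicate wells.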

Counter-ions that a name gives are not always drawn. ± gives the standard deviation of the averaged measurements. Whole data set: some 1,300 compounds, median “normalised cell viability” near 1, cut for the lowest 2% near 0.14. The list shows a part of the results.

The source of these data is the supplement of paper PMC6609913.

On to `CC(C)Cn1cnc2c(N)nc3ccccc3c21` [Imiquimod], for which the normalised cell viability is 1.11 ± 0.044 (treatment time: 3 days) and 1.02 ± 0.064 (treatment time: 6 days).
In turn, `CC(C)(Oc1ccc(Cl)cc1)C(=O)O` [Clofibric acid] displayed a normalised cell viability (treatment time: 3 days) of 0.918 ± 0.17 and a normalised cell viability (treatment time: 6 days) of 0.996 ± 0.051.
Regarding `CN(C)CC/C=C1\c2ccccc2CSc2ccccc21` [Dosulepin hydrochloride], the normalised cell viability by setting is: (treatment time: 3 days) 0.161 ± 0.012; (treatment time: 6 days) 0.149 ± 0.0031.
For `Cn1c(=O)c2c(ncn2CC(=O)O)n(C)c1=O` [Acefylline], in that order: 1.04 ± 0.016 and 1.02 ± 0.018.
The corresponding values for `CC(C)(S)[C@@H](N)C(=O)O` [Penicillamine] are 0.964 ± 0.074 and 1.04 ± 0.097.
Regarding `CO[C@H]1C[C@H](O[C@H]2[C@H](C)[C@@H](O[C@@H]3O[C@H](C)C[C@H](N(C)C)[C@H]3OC(C)=O)[C@@H](C)C[C@@]3(CO3)C(=O)[C@H](C)[C@@H](OC(C)=O)[C@@H](C)[C@@H](C)OC(=O)[C@@H]2C)O[C@@H](C)[C@@H]1OC(C)=O` [Troleandomycin], the normalised cell viability reads like this: (treatment time: 3 days) 1.05 ± 0.074; (treatment time: 6 days) 1.12 ± 0.11.
For `COc1ccc(-c2ccc(=N)n(CCCC(=O)O)n2)cc1` [Gabazine bromide], in that order: 1.07 ± 0.069 and 1.05 ± 0.086.
The corresponding values for `Cc1cc(C(=O)NNCc2ccccc2)no1` [Isocarboxazid] are 0.942 ± 0.034 and 0.901 ± 0.07.
The corresponding values for `COc1cc(OC)c(C(=O)CCCN2CCCC2)c(OC)c1` [Buflomedil hydrochloride] are 1.06 ± 0.089 and 1.14 ± 0.2.
For the compound `N#CC(c1ccc(Cl)cc1)c1c(Cl)cc(-n2ncc(=O)[nH]c2=O)cc1Cl` (stereo not given) [Diclazuril], the normalised cell viability is, setting by setting: (treatment time: 3 days) 0.905 ± 0.068; (treatment time: 6 days) 0.875 ± 0.068.
The corresponding values for `COc1ccc2c(c1)N(C[C@H](C)CN(C)C)c1ccccc1S2` [Methotrimeprazine maleat salt] are 0.858 ± 0.05 and 0.796 ± 0.026.
The compound `CCCN(CCC)C(=O)C(CCC(=O)O)NC(=O)c1ccccc1` (stereo not given) [Proglumide] displayed a normalised cell viability (treatment time: 3 days) of 1.05 ± 0.045 and a normalised cell viability (treatment time: 6 days) of 0.977 ± 0.11.
For `CCN1C(=O)NC(c2ccccc2)C1=O` (stereo not given) [Ethotoin], in that order: 1.04 ± 0.017 and 1.07 ± 0.094.
For `CN1CCC(=C2c3ccccc3CC(=O)c3sccc32)CC1` [Ketotifen fumarate], in that order: 1.06 ± 0.12 and 1.06 ± 0.022.
In the case of `COc1ccccc1N1CCN(CC(O)COc2cccc3ccccc23)CC1` (stereo not given) [Naftopidil dihydrochloride], the normalised cell viability turned out to be 0.88 ± 0.049 (treatment time: 3 days) and 0.915 ± 0.016 (treatment time: 6 days).
Consider `CN1CCCC(CC2c3ccccc3Sc3ccccc32)C1` (stereo not given) [Metixene hydrochloride], for which the normalised cell viability runs as follows: (treatment time: 3 days) 0.57 ± 0.02; (treatment time: 6 days) 0.69 ± 0.052.
The corresponding values for `CC(C)(Sc1cc(C(C)(C)C)c(O)c(C(C)(C)C)c1)Sc1cc(C(C)(C)C)c(O)c(C(C)(C)C)c1` [Probucol] are 0.942 ± 0.042 and 1.02 ± 0.041.
For `Cn1ccnc1S` [Methimazole], in that order: 1.04 ± 0.037 and 0.994 ± 0.053.
For `Nc1c(Br)cc(Br)cc1CN[C@H]1CC[C@H](O)CC1` [Ambroxol hydrochloride], in that order: 1.15 ± 0.012 and 1.1 ± 0.077.
`CC(C)(C(=O)c1cccnc1)c1cccnc1` [Metyrapone] gave a normalised cell viability (treatment time: 3 days) of 1.02 ± 0.046 and a normalised cell viability (treatment time: 6 days) of 0.843 ± 0.16.
On to `O=c1cc(-c2ccc(O)c(O)c2)oc2cc(O)cc(O)c12` [Luteolin], for which the normalised cell viability (treatment time: 3 days) amounted to 0.87 ± 0.014 and the normalised cell viability (treatment time: 6 days) turned out to be 0.914 ± 0.073.
The corresponding values for `CC(C)/N=c1\cc2n(-c3ccc(Cl)cc3)c3ccccc3nc-2cc1Nc1ccc(Cl)cc1` [Clofazimine] are 0.148 ± 0.0016 and 0.133 ± 0.017.
The corresponding values for `O=C1Cc2cc(CCN3CCN(c4nsc5ccccc45)CC3)c(Cl)cc2N1` [Ziprasidone  Hydrochloride] are 0.181 ± 0.01 and 0.206 ± 0.0036.
The corresponding values for `CCN[C@H]1C[C@H](C)S(=O)(=O)c2sc(S(N)(=O)=O)cc21` [Dorzolamide hydrochloride] are 0.92 ± 0.09 and 0.961 ± 0.061.
Turning to `CC(=O)N(O)CCCCCNC(=O)CCC(=O)N(O)CCCCCNC(=O)CCC(=O)N(O)CCCCCN` [Deferoxamine mesylate], the normalised cell viability by setting is: (treatment time: 3 days) 0.305 ± 0.021; (treatment time: 6 days) 0.198 ± 0.011.
For `CCOC(=O)C(C)(C)Oc1ccc(Cl)cc1` [Clofibrate], in that order: 1.05 ± 0.047 and 1.1 ± 0.074.
For `CC(C)NC[C@H](O)COc1ccc(CC(N)=O)cc1` [(S)-(-)-Atenolol], in that order: 1.21 ± 0.34 and 1.02 ± 0.035.
The corresponding values for `CO[C@@]1(NC(=O)CSCC#N)C(=O)N2C(C(=O)O)=C(CSc3nnnn3C)CS[C@@H]21` [Cefmetazole sodium salt] are 1.02 ± 0.016 and 1.03 ± 0.085.
Regarding `C[C@@H]1[C@H](O)[C@@H](C)/C=C/C=C/C=C/C=C/C=C/C=C/C=C/[C@H](O[C@@H]2O[C@H](C)[C@@H](O)[C@H](N)[C@@H]2O)C[C@@H]2O[C@](O)(C[C@@H](O)C[C@@H](O)[C@H](O)CC[C@@H](O)C[C@@H](O)CC(=O)O[C@H]1C)C[C@H](O)[C@H]2C(=O)O` [Amphotericin B], the normalised cell viability runs as follows: (treatment time: 3 days) 0.944 ± 0.067; (treatment time: 6 days) 0.916 ± 0.077.
Take `CCC(NC(C)C)C(O)c1ccc(O)c(O)c1` (stereo not given) [Isoetharine mesylate salt]: the normalised cell viability is, setting by setting: (treatment time: 3 days) 1.12 ± 0.077; (treatment time: 6 days) 0.953 ± 0.1.
As for `CCC(Cc1c(I)cc(I)c(N)c1I)C(=O)O` (stereo not given) [Iopanoic acid], the normalised cell viability came to 0.999 ± 0.036 (treatment time: 3 days) and 1.07 ± 0.033 (treatment time: 6 days).
For `CN1CCc2cccc3c2[C@H]1Cc1ccc(O)c(O)c1-3` [R(-) Apomorphine hydrochloride hemihydrate], in that order: 0.654 ± 0.02 and 0.871 ± 0.026.
As to `CN1CCN(C2=Nc3cc(Cl)ccc3Nc3ccccc32)CC1` [Clozapine], the normalised cell viability came out at 1.01 ± 0.04 (treatment time: 3 days) and 1 ± 0.038 (treatment time: 6 days).
The corresponding values for `C[C@@H]1NC(=O)NC1=O` [Methylhydantoin-5-(L)] are 1 ± 0.089 and 1.07 ± 0.013.
For `CC1CCc2c(N3CCC(O)CC3)c(F)cc3c(=O)c(C(=O)O)cn1c23` (stereo not given) [Nadifloxacin], in that order: 0.907 ± 0.067 and 1.01 ± 0.12.
